We go through one compound from patent US4378360A, “6-{3-[4-(Substituted benzyl)-1-piperazinyl]propyloxy}-4,9-dihydro-4,9-dioxo-1H-naphtho[2,3-d-]- v” (Beecham Group Limited, priority 1980, dated 1983).

SMILES strings stand for the structures. The source holds more than one record for some entries. Only these are listed. An entry can have further records. Results that share an entry read as repeated measurements on other runs, samples or individuals; a mean can stand among them.

For this test, the target named is T1, histamine on isolated guinea pig ileum (Cavia porcellus, UniProt P31389).
T1 construct: strips of terminal guinea pig ileum suspended in a 4 ml capacity organ bath; from tissue; host or cells: terminal ileum strips of guinea pig (Dunkin Hartley male white guinea pigs)
T1 sequence (P31389 whole entry): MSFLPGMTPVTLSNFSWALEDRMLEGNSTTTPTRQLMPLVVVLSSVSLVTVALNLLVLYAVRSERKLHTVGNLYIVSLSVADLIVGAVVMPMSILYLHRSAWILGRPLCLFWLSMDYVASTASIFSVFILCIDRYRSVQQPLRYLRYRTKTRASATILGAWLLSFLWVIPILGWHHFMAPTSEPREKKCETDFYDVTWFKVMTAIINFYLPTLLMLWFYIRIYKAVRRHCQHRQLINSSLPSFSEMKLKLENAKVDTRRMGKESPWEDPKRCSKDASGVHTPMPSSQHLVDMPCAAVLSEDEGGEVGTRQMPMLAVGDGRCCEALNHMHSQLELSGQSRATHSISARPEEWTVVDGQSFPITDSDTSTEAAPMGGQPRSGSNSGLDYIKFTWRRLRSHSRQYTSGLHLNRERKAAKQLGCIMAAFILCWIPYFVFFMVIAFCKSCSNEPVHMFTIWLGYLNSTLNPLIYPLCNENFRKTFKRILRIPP
The experiment in a line: Antihistamine activity (in vitro): antagonism of the spasmogenic effects of histamine on isolated guinea pig ileum. The settings on record: Tyrode solution, 30° C., antagonist 5-640 ng/ml, several assays per compound, read-out: pA2 values obtained in different assays (converted). On the procedure: (b) antagonise the spasmogenic effects of histamine on isolated guinea pig ileum.
Charles River Sprague Dawley male rats of 225-275 g and Dunkin Hartley male white guinea pigs of 250-300 g were used.
The anti-histamine activity of these compounds were measured in terms of pA2 values on guinea pig ileum using the method described by Arunlakshana, O. and Schild, H. O. (Brit J Pharm, 14, 1959, 48).
The pA2 is defined as the negative logarithm of the molar concentration of antagonist that will reduce the response of a double dose of agonist to that of a single dose.
Assays were carried out using strips of terminal guinea pig ileum suspended in a 4 ml capacity organ bath. The ileum was immersed in aerated Tyrode solution at a temperature of 30° C. and a tension of 1 gm was applied to the gut. Longitudinal contractions of the gut were recorded isotonically using a 2LD01 Devices transducer, a R2502-2 Devices optical wedge and a RE511.20 Smiths servoscribe flat bed recorder.
The tissue was constantly immersed in Tyrode solution washing was by fluid displacement from below. […]
The height of the response was measured in mms and a mean value calculated. […] The dose of histamine which produced a response of 100 mms were obtained for each curve from the graph and the ratio designated CR was calculated from [formula] […]

For the compound `O=C1c2cccc(OCCCN3CCN(Cc4ccc(Cl)cc4)CC3)c2C(=O)c2nn[nH]c21` [Example 4, 5-{3-[4-(4-Chlorobenzyl)-1-piperazinyl]-propyloxy}-4,9-dihydro-4,9-dioxo-1H-naphtho-[2,3-d]-v-triazole], the Kb was 891, 794, 63.1, 316 nM [one passage].
